Assay results taken from PubChem BioAssay AID504845 (National Center for Advancing Translational Sciences (NCATS), 2011).
Hit rate of the full screen: of about 390,000 compounds, about 150 (0.038%) were called active. This list was built around the results that the source calls inconclusive (neither active nor inactive); the mix of calls is not that of the screen. Calls follow the shape of the dose curve; as a rule, active = well fitted inhibition curve with a large enough effect; inconclusive = small, poorly fitted or top-dose-only effect; inactive = no such curve, though single readings can be large or run the other way. A potency beside an inconclusive call is a rough fit, not a confirmed value.

Molecular target: Regulator of G-protein signaling 4 (Homo sapiens) (UniProt P49798)
Sequence of UniProt P49798 (P49798 whole entry, looked up): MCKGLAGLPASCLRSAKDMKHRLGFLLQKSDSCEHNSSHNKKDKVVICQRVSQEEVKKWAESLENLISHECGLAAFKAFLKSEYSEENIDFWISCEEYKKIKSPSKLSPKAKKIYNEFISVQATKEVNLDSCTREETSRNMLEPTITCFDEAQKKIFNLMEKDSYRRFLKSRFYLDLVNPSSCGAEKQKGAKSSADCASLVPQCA
Experiment: Inhibitors of Regulator of G Protein Signaling (RGS) 4: qHTS; also: nearly all actives have a fitted effect of over 75% in size
Details: Transcreener GDP fluorescence polarization, RGS4-accelerated GTP hydrolysis; series mostly up to 114 µM
How it was run: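 MLSMR compounds (23 nl, pin-transferred) preincubated 10 min at room temperature with a 500nM (2x) first reagent, then RGS4 at 900nM (2x) plus Transcreener GDP mix added; fluorescence polarization (620/688 nm) read before and after 90 min at 30 °C.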
Potency is read from the fitted curve at half-maximal effect; tags tell the direction and shape of the fitted curve.

Row | SMILES | Potency
1 | CCOC(=O)c1[nH]c(C)c(C(=O)N2CCN(c3ccccc3)CC2)c1C | inactive
2 | O=C(/C=C/c1ccc(Br)o1)NC(c1ccccc1)c1ccccc1 | inconclusive: 56.2 µM [inhibitor, partial curve, poor fit]
3 | COc1ccc(CCNC(=O)c2ccc(Cn3c(=O)c4cccn4c4cccnc43)cc2)cc1OC | inconclusive: 35.5 µM [inhibitor, full curve, poor fit]
4 | O=C(c1cccs1)N1CCn2c1nc1ccccc12 | inactive
5 | CCC1(c2ccc(Cl)cc2)NC(=S)N(c2ccccc2)N1 (stereo not given) | inconclusive: 39.8 µM [inhibitor, partial curve, poor fit]
6 | CC(C)N(C(=O)[C@H]1C[C@H](CC(=O)NC(C)(C)C)C(=O)N2CCc3c([nH]c4cc(-c5ccco5)ccc34)[C@]12C)C(C)C | inconclusive: 17.8 µM [inhibitor, full curve, poor fit]
7 | CCc1nn(CC(=O)NCc2ccccc2)c(=O)c2cccn12 | inconclusive: 17.8 µM [inhibitor, full curve, poor fit]
8 | NCCNc1ccc(C(=O)N2c3ccccc3Sc3ccccc32)cc1[N+](=O)[O-] | inactive
9 | CNc1ncnc(Sc2ccc(Cl)cc2)c1[N+](=O)[O-] | inactive
10 | O=S(=O)(c1ccccc1)N1c2cc(Cl)ccc2Oc2nc3ccccc3nc21 | inconclusive: 89.1 µM [inhibitor, single point]
11 | CCOc1ccc(/C=C2\SC(=S)N(CCC(=O)Nc3cccc(C(=O)O)c3)C2=O)cc1 | inconclusive: 79.4 µM [inhibitor, partial curve, poor fit]
12 | CS(=O)(=O)c1ncc(Cl)c(C(=O)Nc2ccc3ccccc3c2)n1 | inconclusive: 56.2 µM [inhibitor, partial curve, poor fit]
13 | COc1ccc(O)c(C(=O)C2c3ccccc3C(=O)N2c2ccc(C)cc2)c1 (stereo not given) | inconclusive: 79.4 µM [inhibitor, partial curve, poor fit]
14 | CCOc1cc(/C=C/c2ccc3cccc([N+](=O)[O-])c3n2)ccc1OCC(=O)N(C)C | inconclusive: 50.1 µM [inhibitor, partial curve, poor fit]
15 | CC(=O)Nc1ccc(S(=O)(=O)Nc2nnc(CC(C)(C)C)s2)cc1 | inconclusive: 100 µM [inhibitor, partial curve, poor fit]
16 | COc1cccc(N2CCN(C(=O)c3cnn(-c4ccccc4Cl)c3C3CCN(C(=O)OC(C)(C)C)CC3)CC2)c1 | inactive
17 | N#Cc1ccc(/C=C/C(=O)c2cccnc2)cc1 | inactive
18 | O=C(NCCCN1CCCCCC1)c1ccc2c(Cl)c3c(nc2c1)CCCC3 | inconclusive: 89.1 µM [inhibitor, single point]
19 | CC(C)(C)OC(=O)N1CC=C2C(C#N)=C(N)C(C#N)(C#N)[C@H](c3cccnc3)[C@H]2C1 | inactive
20 | Cc1ccc(N(CCC#N)C(=O)CCl)cc1C | inactive
21 | O=[N+]([O-])c1c(Nc2ccccn2)cc(Cl)c2nonc12 | inconclusive: 17.8 µM [inhibitor, full curve, poor fit]
22 | Cc1nnc(SCC(=O)N2N=C(c3ccc(Cl)cc3)CC2c2ccco2)[nH]c1=O (stereo not given) | inconclusive: 25.1 µM [inhibitor, full curve, poor fit]

Row | SMILES | Potency
23 | Cc1ccc(S(=O)(=O)N2CCCC(C(=O)NCCc3ccc4c(c3)OCO4)C2)cc1 (stereo not given) | inactive
24 | S=C(NCC1CCCO1)Nc1cc(Cl)c(Cl)cc1Cl (stereo not given) | inconclusive: 31.6 µM [inhibitor, full curve, poor fit]
25 | CCOC(=O)C1(C)/C(=N/Nc2ccc(Cl)cc2)C(=O)C(=O)N1c1ccccc1 (stereo not given) | inconclusive: 50.1 µM [inhibitor, partial curve, poor fit]
26 | COc1ccc(Oc2cc(C)c3cccc(C)c3n2)cc1 | inconclusive: 70.8 µM [inhibitor, single point]
27 | N#Cc1c2c(c(-c3ccccc3Cl)[nH]c1=S)CCCC2 | inconclusive: 89.1 µM [inhibitor, partial curve, poor fit]
28 | CC1(C)C(=O)C=CC(=O)C(C)(C)C(=O)C=CC(=O)C(C)(C)C2=CC=C(O2)C(C)(C)C(=O)C=CC1=O | inconclusive: 70.8 µM [inhibitor, partial curve, poor fit]
29 | N#C/C(=C\c1ccc(-c2ccc(S(=O)(=O)N3CCOCC3)cc2)o1)C(=O)NC1CC1 | inactive
30 | Cc1ccc(-c2ccc(/C=C3\SC(N4CCOCC4)=NC3=O)o2)cc1 | inconclusive: 70.8 µM [inhibitor, partial curve, poor fit]
31 | N#Cc1cc([N+](=O)[O-])c2sc(C(N)=O)[n+]([O-])c2c1 | inconclusive: 9.47 µM [inhibitor, partial curve, poor fit]
32 | CCn1nnc(NC(=O)c2ccc(C(C)(C)C)cc2)n1 | inactive
33 | CC1CCN(CCOc2ccc(C(=O)c3ccccc3)cc2)CC1 | inactive
34 | Cc1ccc(/C=C/C(=O)NCc2ccc3c(c2)OCO3)o1 | inconclusive: 79.4 µM [inhibitor, partial curve, poor fit]
35 | O=C(C1=C[C@H](c2coc3ccccc3c2=O)C[C@H](OCc2ccc(CO)cc2)O1)N1CCN(Cc2ccc3c(c2)OCO3)CC1 | inactive
36 | COC(=O)c1c(NC(=O)COC(=O)Cn2cnc3ccccc32)sc2c1CCCC2 | inconclusive: 17.8 µM [inhibitor, full curve, poor fit]
37 | CCc1ccc(C2=NN(CCC(=O)NC3CCCCCC3)C(=O)CC2)cc1 | inconclusive: 50.1 µM [inhibitor, partial curve, poor fit]
38 | OCCC1CN(Cc2cccc(-c3ccco3)c2)CCN1Cc1ccsc1 (stereo not given) | inactive
39 | CN(C)c1ccc(C=c2c3ccccc3n3c2cc(-c2ccc(Cl)cc2)[n+]3C)cc1 | inconclusive: 79.4 µM [inhibitor, partial curve, poor fit]
40 | O=C(Nc1ccc(S(=O)(=O)N2CCCCC2)cc1)C1CCCN(C(=O)c2ccc(Cl)cc2)C1 (stereo not given) | inconclusive: 31.6 µM [inhibitor, full curve, poor fit]
41 | Cc1ccc(C(=O)N/N=C/c2c(O)ccc3ccccc23)cn1 | inactive
42 | N#Cc1cc(-c2ccccc2)nnc1Oc1ccccc1Cl | inconclusive: 89.1 µM [inhibitor, single point]
43 | Cc1nc2nc(SCC(=O)NCc3ccco3)nn2c(C)c1Cc1c(F)cccc1Cl | inconclusive: 100 µM [inhibitor, single point]
44 | O=C(Nc1cc(SCC(O)CO)cc([N+](=O)[O-])c1)c1ccc(-n2cnnn2)cc1 (stereo not given) | inconclusive: 50.1 µM [inhibitor, partial curve, poor fit]

Row | SMILES | Potency
45 | CN(C)C(=O)CSc1nc2ccccc2n1Cc1ccccc1 | inactive
46 | CCSc1nc2ccccc2c(OCc2ccc(Cl)cc2)c1C(=O)OC | inactive
47 | Oc1ccccc1-c1cc(-c2ccccc2Cl)[nH]n1 | inactive
48 | COc1cc(C(c2c(C)[nH][nH]c2=O)c2c(C)[nH][nH]c2=O)ccc1OC(=O)c1ccccc1OC | inconclusive: 56.2 µM [inhibitor, partial curve, poor fit]
49 | Cc1ccc(-c2cc(-c3ccccc3Cl)c(C#N)c(N)n2)o1 | inconclusive: 50.1 µM [inhibitor, partial curve, poor fit]
50 | CCOC(=O)c1c(NC(=O)c2cc(-c3ccc(OC)c(OC)c3)on2)sc2c1CCCC2 | inconclusive: 35.5 µM [inhibitor, full curve, poor fit]
51 | c1cn2cc(-c3ccc4c(c3)OCO4)nc2s1 | inconclusive: 89.1 µM [inhibitor, single point]
52 | CN(C)CCNCc1ccc(OC2CCCC2)cc1 | inactive
53 | O=c1[nH]c(CN2CCN(c3ccc(O)cc3)CC2)nc2scc(-c3ccc(Cl)cc3)c12 | inactive
54 | O=C1c2cccc3cccc(c23)C(=O)N1CC1CCN(S(=O)(=O)c2ccccc2)CC1 | inactive
55 | Fc1ccccc1NC(=S)Nc1cccc2cnccc12 | inconclusive: 79.4 µM [inhibitor, partial curve, poor fit]
56 | COC(=O)c1ccc(NC(=O)c2cc(-c3ccccn3)nc3ccccc23)cc1 | inactive
57 | Cc1ccc(CS(=O)(=O)c2ncc(Cl)c(C(=O)Nc3nnc(C(C)C)s3)n2)cc1 | inconclusive: 56.2 µM [inhibitor, partial curve, poor fit]
58 | CCOC(=O)COc1ccc(Br)cc1/C=C/c1[nH]c(=O)[nH]c(=O)c1[N+](=O)[O-] | inconclusive: 31.6 µM [inhibitor, partial curve, poor fit]
59 | CSCCC(NC(C)=O)C(=O)OCC(=O)N(c1ccccc1)c1ccccc1 (stereo not given) | inconclusive: 50.1 µM [inhibitor, partial curve, poor fit]
60 | N#C/C(=N\Nc1ccc(S(=O)(=O)N2CCCCCC2)cc1)C(N)=S | inconclusive: 10 µM [inhibitor, full curve, poor fit]
61 | O=S(=O)(N/N=C/c1cccnc1)c1ccc(Cl)c(Cl)c1 | inconclusive: 50.1 µM [inhibitor, partial curve, poor fit]
62 | COC(=O)c1ccc(/C=C/C(=O)c2ccc(OC)c(OC)c2)cc1 | inconclusive: 79.4 µM [inhibitor, partial curve, poor fit]
63 | Cc1cccc(NC(=S)Nc2cccc(C)n2)n1 | inactive
64 | O=C1OCc2nc3cc4c(cc3c(-c3ccc(F)cc3)c21)OCO4 | inconclusive: 28.2 µM [inhibitor, full curve, poor fit]
65 | Cc1cc2c(cc(C(=O)N3CCC(C(=O)N4CCCC4)CC3)n2Cc2c(F)cccc2Cl)o1 | inconclusive: 44.7 µM [inhibitor, partial curve, poor fit]
